# Measured values reported in PubChem BioAssay AID2675 (National Center for Advancing Translational Sciences (NCATS), 2010).
# The whole screen tested about 280,000 compounds, of which about 100 (0.036%) were called active. The shares of active, inactive and inconclusive entries below differ from those in the screen. Calls follow the shape of the dose curve; as a rule, active = well fitted inhibition curve with a large enough effect in the signal ratio, with a control signal flat (not every such curve was filed as active); inconclusive = small, poorly fitted or top-dose-only effect, or effect the other way, or a change in a side signal; inactive = no such curve, though single readings can be large or run the other way; the % refers to the signal ratio. Potencies of inconclusive entries are doubtful fits and often do not repeat. “Side channel” marks fits to a control or component signal instead of the main read-out.
# Biological target: Muscleblind-like protein 1 (Homo sapiens) (UniProt Q9NR56)
# Assay: qHTS Assay for Inhibitors of MBNL1-poly(CUG) RNA binding
# Conditions: TR-FRET MBNL1-His/biotin-(CUG)12 binding, 665/545 ratio; activity change, negative = inhibition: at 57.5 µM (top of the series)
# How it was run: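 TR-FRET readout: Ex 340 nm, 665/545 nm emission ratio, normalized to buffer-only (basal) and MBNL1-(CUG)12 controls. Complex of MBNL1-His with Biotin-(CUG)12, compounds 92 nM–58 uM, incubated 60 min at room temperature.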
# % is scaled to controls: 0 for no effect and ±100 for the full control effect; potency is read from the fitted curve at half-maximal effect; tags tell the direction and shape of the fitted curve or compound fluorescence and quenching.
# Sequence of UniProt Q9NR56 (Q9NR56 whole entry, looked up): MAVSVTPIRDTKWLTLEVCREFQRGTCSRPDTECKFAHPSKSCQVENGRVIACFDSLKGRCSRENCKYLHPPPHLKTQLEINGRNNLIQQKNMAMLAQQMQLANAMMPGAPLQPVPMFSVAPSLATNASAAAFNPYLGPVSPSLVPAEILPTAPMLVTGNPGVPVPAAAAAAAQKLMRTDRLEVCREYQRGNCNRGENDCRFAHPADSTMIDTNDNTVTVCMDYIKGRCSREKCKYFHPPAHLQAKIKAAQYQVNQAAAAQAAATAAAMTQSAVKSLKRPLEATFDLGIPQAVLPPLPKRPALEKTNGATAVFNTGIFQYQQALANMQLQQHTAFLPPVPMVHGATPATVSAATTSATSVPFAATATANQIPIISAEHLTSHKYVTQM
Compound,Potency,"activity change, negative = inhibition"
CCC1SC2=NC(C)=C(C(=O)OCCOC)C(/C=C/c3ccccc3OC)N2C1=O (stereo not given),"inconclusive: 17.8 µM [quencher, side channel, single point]",–
O=C(NC1CCCCC1)c1cc2nc3c(c(C(F)(F)F)n2n1)CCCC3,"inconclusive: 28.2 µM [quencher, side channel, single point]",–
Cc1cc(C)c2cc(CN(CCO)Cc3nnnn3Cc3ccccc3)c(=O)[nH]c2c1,"inconclusive: 28.2 µM [quencher, single point]",–
O=c1/c(=C/c2ccc([N+](=O)[O-])cc2)sc2n1CCCN=2,"inconclusive: 11.2 µM [quencher, side channel, partial curve]",–
CCOC(=O)Nc1ccc2c(c1)N(C(=O)N(C)C)c1ccccc1CC2,"inconclusive: 3.16 µM [quencher, side channel, partial curve]",–
Nc1ccc(SCC(=O)Nc2cccc([N+](=O)[O-])c2)cc1,"inconclusive: 22.4 µM [quencher, side channel, partial curve]",–
COc1cc(/C(C)=N/NC(=S)NC(C)C)cc(OC)c1OC,–,inactive: 8.83%
Cc1ccc(OCC(O)CN2CCN(CC(O)COc3ccc(C)cc3)CC2)cc1 (stereo not given),–,inactive: 9.44%
O=C(Nc1ccncc1)C1c2ccccc2Oc2ccccc21,"inconclusive: 25.1 µM [fluorescent, side channel, single point]",–
Cc1cccn2c(=O)c3cc(C#N)c(=O)n(-c4c(C)n(C)n(-c5ccccc5)c4=O)c3nc12,"inconclusive: 6.31 µM [quencher, side channel, partial curve]",–
CC(NC(=O)Cn1nnc(-c2ccncc2)n1)c1ccccc1 (stereo not given),"inconclusive: 39.8 µM [inhibitor, single point]",–
CCOC(=O)c1sc2nc(N3CCOCC3)c3c(c2c1N)CCN(C)C3,–,inactive: 21.8%
COc1ccc(N(CC(=O)Nc2cccc(OC)c2)S(=O)(=O)c2c(C)nn(C)c2C)cc1,–,inactive: -10.3%
O=C(O)CCCn1c(O)c(C=C2N=c3ccccc3=N2)sc1=S,"inconclusive: 14.1 µM [quencher, side channel, partial curve]",–
Cc1ccc(C2C3C(=O)N(c4ccccc4)C(=O)C3N3CCCN23)cc1 (stereo not given),–,inactive: -2.13%
O=C(c1ccccc1NS(=O)(=O)c1cccc([N+](=O)[O-])c1)N1CCCC1,"inconclusive: 39.8 µM [quencher, side channel, single point]",–
COc1ccc(Cl)cc1N(CC(=O)N/N=C/c1ccc(OCC(N)=O)cc1)S(C)(=O)=O,"inconclusive: 17.8 µM [quencher, side channel, partial curve]",–
CCOC(=O)/C(C#N)=C/c1ccc(N2CCN(C)CC2)cc1,"inconclusive: 12.6 µM [quencher, side channel, partial curve]",–
CN(C)c1ccc(C=Nc2cnn(C)c2C(N)=O)cc1,"inconclusive: 31.6 µM [quencher, side channel, partial curve]",–
O=C(N/N=C\c1c(O)ccc2ccccc12)c1ccc(O)cc1,–,inactive: 22%

Compound,Potency,"activity change, negative = inhibition"
CC1CCCN(CCCNC(=O)CN2C(=O)COc3ccc(S(=O)(=O)N4CCOCC4)cc32)C1 (stereo not given),–,inactive: 0.952%
COc1cccc(NC(=O)COc2ccc(C)cc2)c1,"inconclusive: 31.6 µM [inhibitor, single point]",–
Cc1ccc(NC(=S)N2CCN(C)CC2)c(C)c1,"inconclusive: 7.08 µM [quencher, side channel, single point]",–
CC1CN=C(c2cccn2Cc2ccc(F)cc2Cl)O1 (stereo not given),–,inactive: 2.15%
COCCOC(=O)/C(C#N)=C/c1cn(Cc2ccccc2)nc1-c1cccnc1,"inconclusive: 14.1 µM [quencher, side channel, partial curve]",–
C=CCSc1nnc2c(n1)OC=Nc1ccccc1-2,"inconclusive: 7.08 µM [quencher, side channel, partial curve]",–
CCc1nc(-c2ccc(OC)c(OC)c2)cc2cc(OC)c(OC)cc12,–,inactive: -5.48%
CN(C)C(CNc1ccc(C(F)(F)F)cc1[N+](=O)[O-])c1ccccc1 (stereo not given),"inconclusive: 5.01 µM [quencher, side channel, partial curve]",–
COCCN1C=C2C(=O)C(C)(OC(=O)C3CCCC3)C(=O)C=C2C=C1c1ccsc1 (stereo not given),"inconclusive: 17.8 µM [quencher, side channel, partial curve]",–
Cc1c(NC(=O)CNCc2ccc3c(c2)OCO3)c(=O)n(-c2ccccc2)n1C,"inconclusive: 0.562 µM [fluorescent, side channel, single point]",–
COc1cc([N+](=O)[O-])ccc1NC(=S)NNC(=O)c1ccc2c(c1)OCO2,"inconclusive: 28.2 µM [quencher, side channel, single point]",–
Cc1c(Cl)cccc1NC(=O)CCC(=O)N/N=C/c1ccc[nH]1,"inconclusive: 0.1 µM [fluorescent, side channel, full curve, poor fit]",–
O=C(CN1C(=O)S/C(=C/C=C/c2ccccc2)C1=O)Nc1ccc(C(=O)O)cc1,"inconclusive: 22.4 µM [quencher, side channel, single point]",–
O=c1c(O)c(-c2ccc3c(c2)OCO3)oc2ccccc12,–,inactive: 1.7%
Fc1ccc(F)c(NC2=NCCCCC2)c1,"inconclusive: 0.794 µM [fluorescent, side channel, single point]",–
CCOc1ccc(NC(=O)CN2CCN(CC(=O)c3ccc(OC)c(OC)c3)CC2)cc1,–,inactive: 5.19%
CCN(Cc1ccccc1)C(=O)CCc1nc(CN2CCN(C(=O)c3ccc([N+](=O)[O-])cc3)CC2)no1,"inconclusive: 12.6 µM [quencher, side channel, partial curve]",–
Cc1ccc(C(=O)N/C(=C\c2ccccc2)C(=O)NCC2CCCO2)cc1 (stereo not given),"inconclusive: 0.0045 µM [fluorescent, side channel, full curve]",–
O=S(=O)(c1cccc2nsnc12)N1CCN(Cc2ccccc2)CC1,"inconclusive: 15.8 µM [quencher, side channel, partial curve]",–
O=C(O)COc1c(-c2ccc(Cl)cc2)oc2ccccc2c1=O,"inconclusive: 31.6 µM [quencher, side channel, single point]",–

Compound,Potency,"activity change, negative = inhibition"
N#Cc1ccc(N2CCc3ccccc3C2)c([N+](=O)[O-])c1,"inconclusive: 12.6 µM [quencher, side channel, partial curve]",–
CC(NC(=O)COC(=O)c1cc([N+](=O)[O-])ccc1N1CCOCC1)c1ccccc1 (stereo not given),"inconclusive: 14.1 µM [quencher, partial curve]",–
COc1cc(/C=C2\C(=O)NN(c3ccccc3)C2=O)cc([N+](=O)[O-])c1O,"inconclusive: 8.91 µM [quencher, side channel, partial curve]",–
CC1=C(C(=O)OCc2ccccc2)C(c2ccc([N+](=O)[O-])cc2)NC(=O)N1C (stereo not given),"inconclusive: 20 µM [quencher, side channel, single point]",–
COC(=O)Cn1c(-c2ccc(OC)cc2)c(-c2ccc(OC)cc2)nnc1=O,"inconclusive: 12.6 µM [quencher, partial curve]",–
COC(=O)c1cn(-c2ccccc2)c(C)c1C(=O)OC,"inconclusive: 39.8 µM [quencher, side channel, single point]",–
CCCCc1ccc(N=N/C(C(=O)Nc2ccc(NC(C)=O)cc2OC)=C(/C)O)cc1,–,inactive: 2.71%
COc1ccc(/C=C2\N=C3CCCCCN3C2=O)cc1OC,"inconclusive: 6.31 µM [quencher, side channel, partial curve]",–
N/C(=N\OC(=O)c1ccc(Br)cc1)c1cccc([N+](=O)[O-])c1,"inconclusive: 12.6 µM [quencher, side channel, partial curve]",–
CC1(C)CC(=O)C(C2(O)C(=O)Nc3ccccc32)CO1 (stereo not given),"inconclusive: 4.47 µM [quencher, side channel, single point]",–
CCOC(=O)C1(C)C=C(Nc2ccc(O)cc2)C(=O)N1c1ccc(O)cc1 (stereo not given),"inconclusive: 17.8 µM [quencher, side channel, partial curve]",–
O=C(NCc1ccc(/C=N\NC(=O)C(=O)Nc2ccccc2Br)o1)C(=O)Nc1ccccc1,–,inactive: 6.61%
O=c1cc(CNc2cc(Cl)ccc2Cl)nc2sccn12,"inconclusive: 1.41 µM [fluorescent, side channel, full curve]",–
COc1ccc(Cn2c(C)nc3ccc([N+](=O)[O-])cc3c2=O)cc1,"inconclusive: 12.6 µM [quencher, side channel, partial curve]",–
COC(=O)c1nn(-c2ccc(OC)cc2)c(=O)cc1Oc1ccccc1,"inconclusive: 28.2 µM [quencher, side channel, partial curve]",–
COc1ccc(CCN(Cc2ccccn2)C(=S)Nc2cccc(C)c2)cc1OC,–,inactive: -1.27%
O=C(N/N=C/c1ccc(N2CCOCC2)s1)c1ccc(NS(=O)(=O)c2cccs2)cc1,"inconclusive: 11.2 µM [quencher, side channel, partial curve]",–
O=C(N/N=C\c1cc([N+](=O)[O-])ccc1N1CCCC1)c1ccccn1,"inconclusive: 3.16 µM [quencher, single point]",–
CCNC(=S)N/N=C/c1ccc(OCC(=O)Nc2ccc(OC)cc2)c(OC)c1,–,inactive: -10.3%
COc1cccc2c(=O)cn[nH]c12,"inconclusive: 10 µM [quencher, side channel, partial curve, poor fit]",–
